Experimental findings from publication PMC4336329 (PLoS ONE, 2015) are described below.

Out of some 310,000 compounds screened, about 2,200 (0.71%) showed an effect of 50% or more. Effects have a minus sign here. The list shows a part of the results.

For the assay, the target named is human ether-à-go-go-related gene (hERG) potassium channel (human, UniProt Q12809). Nature of the assay: primary screen, population patch clamp on CHO cells stably expressing hERG.
Sequence of human ether-à-go-go-related gene (hERG) potassium channel (Q12809 whole entry, looked up): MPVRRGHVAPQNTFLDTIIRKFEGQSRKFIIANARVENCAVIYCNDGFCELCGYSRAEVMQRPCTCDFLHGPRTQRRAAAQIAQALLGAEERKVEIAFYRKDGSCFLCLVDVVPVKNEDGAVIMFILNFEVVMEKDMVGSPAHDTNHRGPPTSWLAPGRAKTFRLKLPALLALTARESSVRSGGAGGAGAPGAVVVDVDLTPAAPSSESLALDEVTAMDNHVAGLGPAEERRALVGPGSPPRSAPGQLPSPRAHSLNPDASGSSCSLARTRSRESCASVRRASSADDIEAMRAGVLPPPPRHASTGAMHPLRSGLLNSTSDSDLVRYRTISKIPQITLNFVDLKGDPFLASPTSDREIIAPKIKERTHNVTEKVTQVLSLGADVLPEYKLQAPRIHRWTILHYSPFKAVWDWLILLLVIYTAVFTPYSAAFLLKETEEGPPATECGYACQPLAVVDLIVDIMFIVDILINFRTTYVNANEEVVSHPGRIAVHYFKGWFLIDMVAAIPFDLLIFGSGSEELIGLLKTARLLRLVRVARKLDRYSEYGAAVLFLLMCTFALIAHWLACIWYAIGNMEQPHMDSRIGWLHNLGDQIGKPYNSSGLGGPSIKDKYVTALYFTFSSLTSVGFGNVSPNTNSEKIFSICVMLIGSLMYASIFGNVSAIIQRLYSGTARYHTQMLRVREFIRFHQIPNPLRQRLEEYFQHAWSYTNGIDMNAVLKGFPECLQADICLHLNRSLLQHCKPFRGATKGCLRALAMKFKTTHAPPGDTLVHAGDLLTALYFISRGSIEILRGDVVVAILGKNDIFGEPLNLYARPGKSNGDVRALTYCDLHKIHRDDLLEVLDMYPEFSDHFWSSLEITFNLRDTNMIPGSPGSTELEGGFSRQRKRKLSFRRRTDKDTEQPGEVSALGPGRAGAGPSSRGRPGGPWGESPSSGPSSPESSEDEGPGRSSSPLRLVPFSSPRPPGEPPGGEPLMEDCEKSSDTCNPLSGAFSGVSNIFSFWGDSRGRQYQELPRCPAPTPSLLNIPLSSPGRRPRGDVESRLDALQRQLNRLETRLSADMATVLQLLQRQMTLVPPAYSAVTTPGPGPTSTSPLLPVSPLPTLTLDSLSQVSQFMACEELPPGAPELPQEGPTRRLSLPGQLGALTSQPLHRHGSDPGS
On to `O=C(CCc1ccccc1)Nc1ncn[nH]1`, for which the “hERG current change (%, negative = inhibition) at 1uM” value is given as -3.02%.
For the molecule `CCOc1ccc(C2Nc3ccccc3C(CC)(CC)O2)cc1` (stereo not shown), the “hERG current change (%, negative = inhibition) at 1uM” value is 11.4%.
Regarding `Cc1cccc(C)c1NC(=S)NC(C)CCc1ccccc1` (stereo not shown), the “hERG current change (%, negative = inhibition) at 1uM” value is 6.09%.
Next, `Cc1oc2cc([N+](=O)[O-])c(O)c([N+](=O)[O-])c2c1C(=O)c1ccc(Cl)cc1`: 7.93%; `Cn1c(SCC(=O)c2ccccc2F)nnc1C1CC1`: 10.6%; `COc1ccc(NC(=S)NC(=O)c2cncc(Br)c2)c(OC)c1`: 8.18%.
Turning to `Cc1cc(N2CCN(C)CC2)nc2ccc(NC(=S)N3CCN(c4ccc(Cl)cc4)CC3)cc12`, the “hERG current change (%, negative = inhibition) at 1uM” value was found to be 7.81%.
Next, `CC1CCN(CC(O)CN2c3ccccc3Sc3ccccc32)CC1` (stereo not shown): 7.3%.
Turning to `COc1ccc(NC(=O)COC(=O)c2ccc(OC)c(S(=O)(=O)N3CCCC3)c2)cc1OC`, the “hERG current change (%, negative = inhibition) at 1uM” value is reported as 6.49%.
Consider `Cc1ccc(/C=C2\SC(=S)N(CCC(=O)NNC(=O)c3cccnc3)C2=O)cc1`, for which the “hERG current change (%, negative = inhibition) at 1uM” value is given as 4.57%.
Next, `CCN(Cc1ccccc1)c1ccc(/C=N/NS(=O)(=O)c2ccc(C)c([N+](=O)[O-])c2)cc1`: 11.7%; `CCN(C(=O)COC(=O)/C=C/c1ccc(S(=O)(=O)N2CCc3ccccc32)cc1)C1CCS(=O)(=O)C1` (stereo not shown): 1.02%.
Take `CO/N=C(\C(=O)O)c1csc(NN=C(C)C)n1`: the “hERG current change (%, negative = inhibition) at 1uM” value was 14.1%.
With `CCOC(=O)NC(=O)/C(C#N)=C\NNc1ncc(C(F)(F)F)cc1Cl`, the “hERG current change (%, negative = inhibition) at 1uM” value is on record as 7.79%.
Next, `Cc1ccccc1CNC(=O)CCCC(=O)n1nc(C)c2ccccc21`: 8.9%; `CCN1CCN(c2ncnc3c2cnn3-c2ccccc2)CC1`: 5.44%; `O=C(NCc1ccccc1)C1CCCC1`: 16.7%.
Turning to `Cc1cnc(NC(=O)c2ccc(-c3nc4ccccc4s3)o2)s1`, the “hERG current change (%, negative = inhibition) at 1uM” value stood at 12.7%.
Take `Cc1cccc(C(=O)NCCCN2CCCC2=O)c1`: the “hERG current change (%, negative = inhibition) at 1uM” value came out at 11.1%.
On to `CC(C)CCC(C)N=Cc1c(O)n(Cc2ccccc2)c(=O)c2ccccc12` (stereo not shown), for which the “hERG current change (%, negative = inhibition) at 1uM” value turned out to be 12.8%.
`Cc1cccnc1NC1=NCC(C)S1` (stereo not shown): the “hERG current change (%, negative = inhibition) at 1uM” value is on record as 13%.
Next, `CC(=O)Nc1ccc(C23CC4CC(CC(C4)C2)C3)cc1`: 17%; `COc1ccc(CN2C(=O)NC(=O)/C(=C/c3ccc(OC)c(OC)c3OC)C2=O)cc1`: 3.43%.
Next, `COc1ncnc2sc3c(c12)CCCC3`: -6.51%; `O=C(N/N=C/c1cn(Cc2cccc(F)c2)c2ccccc12)c1cc(O)cc(O)c1`: 10.6%; `CC(C)C(=O)Nc1c2c(nn1-c1ccc(F)cc1)CSC2`: 9.44%.
In the case of `CC(=O)Nc1ccc(NC(=O)c2nccnc2C(=O)O)cn1`, the “hERG current change (%, negative = inhibition) at 1uM” value was 7.97%.
Next, `Cc1ccccc1OCCCN1CCCC1`: 7.41%; `Cc1ccc2cccnc2c1N`: 13.8%; `O=C(NC(Nc1ccc(F)cc1)(C(F)(F)F)C(F)(F)F)c1cccnc1`: 13.6%.
For the molecule `COCCNC(=O)C1CC(=O)N(C2CCCC2)C1` (stereo not shown), the “hERG current change (%, negative = inhibition) at 1uM” value is 9.53%.
Next, `CC1CN/C(=C\C(=O)c2ccccc2)C(=O)N1` (stereo not shown): 13%.
Next, `CCOc1cc(C(=S)N2CCOCC2)ccc1OS(=O)(=O)c1ccc(OC)cc1`: 7.25%; `Cc1ccccc1Nc1cc(C(=O)NCC2CCCO2)c2ccccc2n1` (stereo not shown): -0.407%; `CN1[C@@H]2CCC[C@H]1CC(NC(=O)c1nn(C)c3ccccc13)C2.Cl` (stereo partly shown): 3.38%.
On to `COc1ccc(C(=O)Oc2cccc(/C=N/NC(N)=S)c2)cc1`, for which the “hERG current change (%, negative = inhibition) at 1uM” value is reported as 8.26%.
Consider `COC(=O)c1cn(NC(=O)c2cc(OC)cc(OC)c2)c(=O)c2ccccc12`, for which the “hERG current change (%, negative = inhibition) at 1uM” value is on record as 14.1%.
Consider `COc1ccc(C(=O)NCCc2c[nH]c3ccccc23)cc1`, for which the “hERG current change (%, negative = inhibition) at 1uM” value is reported as 13.5%.
On to `COc1ccc(N(Cc2cc3cc(OC)ccc3[nH]c2=O)S(=O)(=O)c2ccc(NC(C)=O)cc2)cc1`, for which the “hERG current change (%, negative = inhibition) at 1uM” value is 9.09%.
Next, `COc1ccccc1-c1noc(CSc2nc(C)cc(=O)[nH]2)n1`: 19.4%; `CNc1nc(Sc2ccccc2)cc(C(F)(F)F)n1`: 18.9%; `CCN(CC(=O)NC1CCS(=O)(=O)C1)S(=O)(=O)c1cccc(C(C)=O)c1` (stereo not shown): 14.6%.
Next, `Cc1onc(-c2ccccc2Cl)c1C(=O)NCCn1c(C)cc2ccccc21`: 12%.
Regarding `CCN(CC)C(=S)NC(=O)Cc1ccccc1`, the “hERG current change (%, negative = inhibition) at 1uM” value amounted to 15.8%.
Next, `CNC(=O)c1cc2c(ccc3ccccc32)o1`: -2.25%; `CCN(CC)c1ccc(CN(C(=O)c2ccco2)C2CCS(=O)(=O)C2)cc1` (stereo not shown): 0.108%; `COCCC(=O)N1CCC(Oc2ccc(C(=O)N3CCCCC3CCO)cc2)CC1` (stereo not shown): 5.22%.
On to `CCS(=O)(=O)N1CCC(c2nc3ccccc3[nH]2)CC1`, for which the “hERG current change (%, negative = inhibition) at 1uM” value was found to be 14.8%.
For the molecule `COc1ccccc1NS(=O)(=O)c1cc(NC(=O)c2cc[n+]([O-])cc2)ccc1N1CCCC1`, the “hERG current change (%, negative = inhibition) at 1uM” value is 8.04%.
Next, `C[C@H](CS)C(=O)N1CCC[C@H]1C(=O)O`: -2.52%; `Cc1ccsc1C(=O)OCc1csc(-c2ccccc2)n1`: -7.82%.
Consider `CS(=O)(=O)Nc1ccccc1C(=O)NCC1(N2CCCCC2)CCCCC1`, for which the “hERG current change (%, negative = inhibition) at 1uM” value is on record as 8.57%.
Next, `Cc1ccc(-c2nc3sc4c(N)ncnc4c3c3c2CCCC3)cc1`: 3.8%; `CCCOc1ccc(C(=O)O)cc1`: 3.26%.
Next, `CC1(CCc2ccccc2)NC(=S)N(c2ccccc2)N1` (stereo not shown): 12.9%; `CCN(CC)CCCC1(CN)OCCc2ccccc21.Cl` (stereo not shown): 1.2%.
As for `CCCOc1ccc(-c2cnc(N)s2)cc1`, the “hERG current change (%, negative = inhibition) at 1uM” value is listed as -0.0697%.
Next, `COc1ccc(/C(N)=N/OC(=O)Cc2ccc(OC)c(OC)c2)cc1`: 12.3%; `Cc1ccc(N(CC(=O)NC2CCCCC2)C(=O)CNC(=O)c2ccco2)c(C)c1`: 8.82%.
Take `COc1ccc2[nH]c3c(=O)n(CCc4ccccc4)cnc3c2c1`: the “hERG current change (%, negative = inhibition) at 1uM” value stood at 2.73%.
Take `CCOC(=O)c1nnc(-c2cccs2)nc1NC(C)C`: the “hERG current change (%, negative = inhibition) at 1uM” value is listed as -13.9%.
As to `O=C(Nc1cccnc1)c1ccc(F)c(S(=O)(=O)N2CCOCC2)c1`, the “hERG current change (%, negative = inhibition) at 1uM” value was found to be 9.9%.
In the case of `CCOc1ccccc1CNS(=O)(=O)c1ccc2c(c1)C(C)(C)C(=O)N2C`, the “hERG current change (%, negative = inhibition) at 1uM” value was determined as 13.5%.
Next, `CCc1nn(CCCC(=O)N2CCN(c3cccc(C)c3C)CC2)c(=O)c2cc3occc3n12`: 7.23%.
Next, `COc1cccc(Nc2nc(CN3CCOCC3)nc3sc4c(c23)CCCC4)c1`: 6.04%; `CCSc1nc(-c2ccc(OC)cc2)cc(-c2ccc(OC)cc2)c1C#N`: 12.8%.
Next, `COc1cc(CC(=O)OCc2ccccc2F)cc(OC)c1OC`: 5.53%; `CC(/C=N/n1c(COc2ccccc2)n[nH]c1=S)=C\c1ccco1`: 10.5%; `Cc1cccc2nc(-c3ccccc3)nc(N3CCC(O)(c4ccc(Cl)cc4)CC3)c12`: 12.6%.
Consider `O=C(NCCO)c1c(O)c2cccc3c2n(c1=O)CC3`, for which the “hERG current change (%, negative = inhibition) at 1uM” value is 10.1%.
Next, `Cc1snc(S(=O)(=O)Cc2ccccc2Cl)c1C#N`: -1.58%.
For `O=c1cc(CN2CCN(c3cccc(Cl)c3)CC2)c2cc(O)c(-c3ccccc3)cc2o1`, the “hERG current change (%, negative = inhibition) at 1uM” value amounted to 18.4%.
In the case of `C(=N\Nc1ccccn1)/c1ccc(N2CCOCC2)cc1`, the “hERG current change (%, negative = inhibition) at 1uM” value turned out to be 10.8%.
Next, `Cc1ccc(C)c(NC(=O)CN(C)C(=O)CN2C(=O)C3CCCCC3C2=O)c1` (stereo not shown): 14.2%.
Consider `Cc1ccc(NC(=O)COC(=O)CCc2ccc(S(=O)(=O)N3CCOCC3)cc2)cc1C`, for which the “hERG current change (%, negative = inhibition) at 1uM” value worked out at 7.57%.
Next, `COc1cccc(-c2coc3cc4oc(=O)c(CC(=O)O)c(C)c4cc23)c1`: 23.4%; `Cc1cc(OCC(=O)N2CCOCC2)ccc1NC(=O)c1ccccc1C`: 18.2%; `Cc1ccc2cc(COC(=O)c3ccco3)c(=O)[nH]c2c1`: 7.94%.
As for `CC1(C)CC(=O)C2=C(C1)Nc1ccccc1N(C(=O)C1CC1)C2c1ccco1` (stereo not shown), the “hERG current change (%, negative = inhibition) at 1uM” value worked out at 9.24%.
Next, `COC(=O)c1cccc(N(C(=O)CNC(=O)c2cccs2)C(C(=O)NCC2CCCO2)c2ccc(OC)c(OC)c2)c1` (stereo not shown): 12%; `Cc1c(C(=O)N(C)CCc2cnn(C)c2)oc2c(F)cccc12`: 11.1%; `O=C(c1ccc(Cl)c(S(=O)(=O)N2CCCC2)c1)N1CCN(c2ccccn2)CC1`: 2.38%.
Take `COc1ccccc1N1CCN(Cc2nc(N)nc(Nc3ccc(C)c(Cl)c3)n2)CC1`: the “hERG current change (%, negative = inhibition) at 1uM” value is on record as -21.1%.
Next, `Cc1cccc(OCC(O)CN2C(C)(C)CC(O)CC2(C)C)c1C` (stereo not shown): -31.6%; `Cc1cc(NC(=O)CSc2cn(CCNC(=O)c3ccc(F)cc3)c3ccccc23)no1`: -0.366%; `CCCn1c(NCc2cc(C)ccc2O)nc2ccccc21`: 5.72%.
Next, `CCCn1cc(CN2CCC(C(=O)Nc3cccc(-c4cscn4)c3)CC2)c(C)n1`: 0.151%.
Next, `Cc1cc(C)c(C)c(Oc2ncnc(N)c2[N+](=O)[O-])c1`: 11.9%; `Cc1ccccc1-c1ccc(CN2CCN(C)C(CCO)C2)cc1` (stereo not shown): 1.12%; `COc1cc(/C=N/Nc2nc(C)cc(=O)[nH]2)ccc1OC(=O)c1cccnc1`: 11.4%.
Regarding `CCOc1ccccc1C(=O)OCC(=O)NCCNC(=O)COC(=O)c1ccccc1OCC`, the “hERG current change (%, negative = inhibition) at 1uM” value stood at 15.3%.
